# Test results from patent US20150023989A1, “NEW ANTIBODY DRUG CONJUGATES (ADCS) AND THE USE THEREOF” (SEATTLE GENETICS, INC., priority 2011, published 2015).
# Target: FGFR2 on the cell surface of human tumour cell lines (human), P21802
# Test: cell-based or functional assay
Binder,"NCI-H716, IC50, 72 hr (growth inhibition)","SNU-16, IC50, 72 hr (growth inhibition)","SUM52-PE, IC50, 72 hr (growth inhibition)","KatoIII, IC50, 72 hr (growth inhibition)","MFM-223, IC50, 72 hr (growth inhibition)"
"Example 26 (immunoconjugate of M048-D01-hIgG1-b, coupled to lysine side chains) (antibody, here or on the partner: auristatin linker-toxophore on side chain NH of lysine residues, positions not stated (drug/mAb ratio 3.7 for the antibody)) heavy: EVQLLESGGGLVQPGGSLRLSCAASGFTFSSYAMSWVRQAPGKGLEWVSAISGSGTSTYYADSVKGRFTISRDNSKNTLYLQMNSLRAEDTAVYYCARVRYNWNHGDWFDPWGQGTLVTVSS[no letters for human IgG1 constant region] light: QSVLTQPPSASGTPGQRVTISCSGSSSNIGNNYVSWYQQLPGTAPKLLIYENYNRPAGVPDRFSGSKSGTSASLAISGLRSEDEADYYCSSWDDSLNYWVFGGGTKLTVLGQPKAAPSVTLFPPSSEELQANKATLVCLISDFYPGAVTVAWKADSSPVKAGVETTTPSKQSNNKYAASSYLSLTPEQWKSHRSYSCQVTHEGSTVEKTVAPTECS",4.69 nM,0.455 nM,< 0.097 nM,,
"Example 3 (immunoconjugate of M048-D01-hIgG1, coupled to cysteine side chains) (antibody, here or on the partner: auristatin linker-toxophore on sulphur atoms of cysteine residues of the partially reduced antibody, positions not stated (drug/mAb ratio 3.7 for the antibody)) heavy: QVELLESGGGLVQPGGSLRLSCAASGFTFSSYAMSWVRQAPGKGLEWVSAISGSGTSTYYADSVKGRFTISRDNSKNTLYLQMNSLRAEDTAVYYCARVRYNWNHGDWFDPWGQGTLVTVSS[no letters for human IgG1 constant region] light: QSVLTQPPSASGTPGQRVTISCSGSSSNIGNNYVSWYQQLPGTAPKLLIYENYNRPAGVPDRFSGSKSGTSASLAISGLRSEDEADYYCSSWDDSLNYWVFGGGTKLTVLGQPKAAPSVTLFPPSSEELQANKATLVCLISDFYPGAVTVAWKADSSPVKAGVETTTPSKQSNNKYAASSYLSLTPEQWKSHRSYSCQVTHEGSTVEKTVAPTECS",,0.15 nM,,,0.195 nM
"Example 4 (immunoconjugate of M048-D01-hIgG1, coupled to lysine side chains) (antibody, here or on the partner: auristatin linker-toxophore on side chain NH of lysine residues, positions not stated (drug/mAb ratio 3.7 for the antibody)) heavy: QVELLESGGGLVQPGGSLRLSCAASGFTFSSYAMSWVRQAPGKGLEWVSAISGSGTSTYYADSVKGRFTISRDNSKNTLYLQMNSLRAEDTAVYYCARVRYNWNHGDWFDPWGQGTLVTVSS[no letters for human IgG1 constant region] light: QSVLTQPPSASGTPGQRVTISCSGSSSNIGNNYVSWYQQLPGTAPKLLIYENYNRPAGVPDRFSGSKSGTSASLAISGLRSEDEADYYCSSWDDSLNYWVFGGGTKLTVLGQPKAAPSVTLFPPSSEELQANKATLVCLISDFYPGAVTVAWKADSSPVKAGVETTTPSKQSNNKYAASSYLSLTPEQWKSHRSYSCQVTHEGSTVEKTVAPTECS",,0.567 nM,,,1.47 nM
"Example 27 (immunoconjugate of M048-D01-hIgG1-b, coupled to cysteine side chains) (antibody, here or on the partner: auristatin linker-toxophore on sulphur atoms of cysteine residues of the partially reduced antibody, positions not stated (drug/mAb ratio 4.2 for the antibody)) heavy: EVQLLESGGGLVQPGGSLRLSCAASGFTFSSYAMSWVRQAPGKGLEWVSAISGSGTSTYYADSVKGRFTISRDNSKNTLYLQMNSLRAEDTAVYYCARVRYNWNHGDWFDPWGQGTLVTVSS[no letters for human IgG1 constant region] light: QSVLTQPPSASGTPGQRVTISCSGSSSNIGNNYVSWYQQLPGTAPKLLIYENYNRPAGVPDRFSGSKSGTSASLAISGLRSEDEADYYCSSWDDSLNYWVFGGGTKLTVLGQPKAAPSVTLFPPSSEELQANKATLVCLISDFYPGAVTVAWKADSSPVKAGVETTTPSKQSNNKYAASSYLSLTPEQWKSHRSYSCQVTHEGSTVEKTVAPTECS",0.517 nM,0.159 nM,< 0.053 nM,0.198 nM,0.109 nM
"Example 28 (immunoconjugate of M048-D01-hIgG1-b, coupled to lysine side chains) (antibody, here or on the partner: auristatin linker-toxophore on side chain NH of lysine residues, positions not stated (drug/mAb ratio 3.7 for the antibody)) heavy: EVQLLESGGGLVQPGGSLRLSCAASGFTFSSYAMSWVRQAPGKGLEWVSAISGSGTSTYYADSVKGRFTISRDNSKNTLYLQMNSLRAEDTAVYYCARVRYNWNHGDWFDPWGQGTLVTVSS[no letters for human IgG1 constant region] light: QSVLTQPPSASGTPGQRVTISCSGSSSNIGNNYVSWYQQLPGTAPKLLIYENYNRPAGVPDRFSGSKSGTSASLAISGLRSEDEADYYCSSWDDSLNYWVFGGGTKLTVLGQPKAAPSVTLFPPSSEELQANKATLVCLISDFYPGAVTVAWKADSSPVKAGVETTTPSKQSNNKYAASSYLSLTPEQWKSHRSYSCQVTHEGSTVEKTVAPTECS",,0.277 nM,0.101 nM,,

# The next lines start with the values.
"NCI-H716, IC50, 72 hr (growth inhibition)","SNU-16, IC50, 72 hr (growth inhibition)","SUM52-PE, IC50, 72 hr (growth inhibition)","KatoIII, IC50, 72 hr (growth inhibition)","MFM-223, IC50, 72 hr (growth inhibition)",Binder
,8.5 nM,0.104 nM,0.92 nM,,"Example 33 (immunoconjugate of M048-D01-hIgG1-b, coupled to lysine side chains) (antibody, here or on the partner: auristatin linker-toxophore on side chain NH of lysine residues, positions not stated (drug/mAb ratio 5.5 for the antibody)) heavy: EVQLLESGGGLVQPGGSLRLSCAASGFTFSSYAMSWVRQAPGKGLEWVSAISGSGTSTYYADSVKGRFTISRDNSKNTLYLQMNSLRAEDTAVYYCARVRYNWNHGDWFDPWGQGTLVTVSS[no letters for human IgG1 constant region] light: QSVLTQPPSASGTPGQRVTISCSGSSSNIGNNYVSWYQQLPGTAPKLLIYENYNRPAGVPDRFSGSKSGTSASLAISGLRSEDEADYYCSSWDDSLNYWVFGGGTKLTVLGQPKAAPSVTLFPPSSEELQANKATLVCLISDFYPGAVTVAWKADSSPVKAGVETTTPSKQSNNKYAASSYLSLTPEQWKSHRSYSCQVTHEGSTVEKTVAPTECS"
,7.41 nM,3.37 nM,,,"Example 34 (immunoconjugate of M048-D01-hIgG1-b, coupled to lysine side chains) (antibody, here or on the partner: auristatin linker-toxophore on side chain NH of lysine residues, positions not stated (drug/mAb ratio 0.5 for the antibody)) heavy: EVQLLESGGGLVQPGGSLRLSCAASGFTFSSYAMSWVRQAPGKGLEWVSAISGSGTSTYYADSVKGRFTISRDNSKNTLYLQMNSLRAEDTAVYYCARVRYNWNHGDWFDPWGQGTLVTVSS[no letters for human IgG1 constant region] light: QSVLTQPPSASGTPGQRVTISCSGSSSNIGNNYVSWYQQLPGTAPKLLIYENYNRPAGVPDRFSGSKSGTSASLAISGLRSEDEADYYCSSWDDSLNYWVFGGGTKLTVLGQPKAAPSVTLFPPSSEELQANKATLVCLISDFYPGAVTVAWKADSSPVKAGVETTTPSKQSNNKYAASSYLSLTPEQWKSHRSYSCQVTHEGSTVEKTVAPTECS"
,,0.105 nM,0.523 nM,,"Example 35 (immunoconjugate of M048-D01-hIgG1-b, coupled to lysine side chains) (antibody, here or on the partner: auristatin linker-toxophore on side chain NH of lysine residues, positions not stated (drug/mAb ratio 3.4 for the antibody)) heavy: EVQLLESGGGLVQPGGSLRLSCAASGFTFSSYAMSWVRQAPGKGLEWVSAISGSGTSTYYADSVKGRFTISRDNSKNTLYLQMNSLRAEDTAVYYCARVRYNWNHGDWFDPWGQGTLVTVSS[no letters for human IgG1 constant region] light: QSVLTQPPSASGTPGQRVTISCSGSSSNIGNNYVSWYQQLPGTAPKLLIYENYNRPAGVPDRFSGSKSGTSASLAISGLRSEDEADYYCSSWDDSLNYWVFGGGTKLTVLGQPKAAPSVTLFPPSSEELQANKATLVCLISDFYPGAVTVAWKADSSPVKAGVETTTPSKQSNNKYAASSYLSLTPEQWKSHRSYSCQVTHEGSTVEKTVAPTECS"
,1.84 nM,0.244 nM,,9.16 nM,"Example 30 (immunoconjugate of M048-D01-hIgG1-b, coupled to lysine side chains) (antibody, here or on the partner: auristatin linker-toxophore on side chain NH of lysine residues, positions not stated (drug/mAb ratio 3.9 for the antibody)) heavy: EVQLLESGGGLVQPGGSLRLSCAASGFTFSSYAMSWVRQAPGKGLEWVSAISGSGTSTYYADSVKGRFTISRDNSKNTLYLQMNSLRAEDTAVYYCARVRYNWNHGDWFDPWGQGTLVTVSS[no letters for human IgG1 constant region] light: QSVLTQPPSASGTPGQRVTISCSGSSSNIGNNYVSWYQQLPGTAPKLLIYENYNRPAGVPDRFSGSKSGTSASLAISGLRSEDEADYYCSSWDDSLNYWVFGGGTKLTVLGQPKAAPSVTLFPPSSEELQANKATLVCLISDFYPGAVTVAWKADSSPVKAGVETTTPSKQSNNKYAASSYLSLTPEQWKSHRSYSCQVTHEGSTVEKTVAPTECS"
,1.7 nM,0.106 nM,,,"Example 29 (immunoconjugate of M048-D01-hIgG1-b, coupled to lysine side chains) (antibody, here or on the partner: auristatin linker-toxophore on side chain NH of lysine residues, positions not stated (drug/mAb ratio 1.3 for the antibody)) heavy: EVQLLESGGGLVQPGGSLRLSCAASGFTFSSYAMSWVRQAPGKGLEWVSAISGSGTSTYYADSVKGRFTISRDNSKNTLYLQMNSLRAEDTAVYYCARVRYNWNHGDWFDPWGQGTLVTVSS[no letters for human IgG1 constant region] light: QSVLTQPPSASGTPGQRVTISCSGSSSNIGNNYVSWYQQLPGTAPKLLIYENYNRPAGVPDRFSGSKSGTSASLAISGLRSEDEADYYCSSWDDSLNYWVFGGGTKLTVLGQPKAAPSVTLFPPSSEELQANKATLVCLISDFYPGAVTVAWKADSSPVKAGVETTTPSKQSNNKYAASSYLSLTPEQWKSHRSYSCQVTHEGSTVEKTVAPTECS"
,5.88 nM,,,,"Example 31 (immunoconjugate of M048-D01-hIgG1-b, coupled to lysine side chains) (antibody, here or on the partner: auristatin linker-toxophore on side chain NH of lysine residues, positions not stated (drug/mAb ratio 1.7 for the antibody)) heavy: EVQLLESGGGLVQPGGSLRLSCAASGFTFSSYAMSWVRQAPGKGLEWVSAISGSGTSTYYADSVKGRFTISRDNSKNTLYLQMNSLRAEDTAVYYCARVRYNWNHGDWFDPWGQGTLVTVSS[no letters for human IgG1 constant region] light: QSVLTQPPSASGTPGQRVTISCSGSSSNIGNNYVSWYQQLPGTAPKLLIYENYNRPAGVPDRFSGSKSGTSASLAISGLRSEDEADYYCSSWDDSLNYWVFGGGTKLTVLGQPKAAPSVTLFPPSSEELQANKATLVCLISDFYPGAVTVAWKADSSPVKAGVETTTPSKQSNNKYAASSYLSLTPEQWKSHRSYSCQVTHEGSTVEKTVAPTECS"
